“And” between values parts separate entries of the source, which are not always exact repeats. Equal values may be shown once. The list shows a part of the results. Shown are side measurements of this screen, not its main read-out; they come without a call.
Key:
Experiment in all cases: Primary Screen for Target Class Profiling of Small Molecule Inhibitors of Methyltransferases
[1] = molecular target: Glycine N-methyltransferase (Homo sapiens) (UniProt Q14749); conditions: purified enzyme, MTase-Glo SAH luminescence; measured here: GNMT inhibition; at 40 µM; stronger effect = lower value
Summary of the method: (§1)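 Each enzyme was assayed with SAM and its substrate. SAH formation detected by MTase-Glo luminescence; single-point 40 uM screen[…].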

[2] = molecular target: Guanidinoacetate N-methyltransferase (Homo sapiens) (UniProt Q14353); conditions: purified enzyme, MTase-Glo SAH luminescence; measured here: GAMT inhibition; at 40 µM; stronger effect = lower value
Summary of the method: as §1

[3] = molecular target: Histamine N-methyltransferase (Homo sapiens) (UniProt P50135); conditions: purified enzyme, MTase-Glo SAH luminescence; measured here: HNMT inhibition; at 40 µM; stronger effect = lower value
Summary of the method: as §1

[4] = molecular target: Nicotinamide N-methyltransferase (Homo sapiens) (UniProt P40261); conditions: purified enzyme, MTase-Glo SAH luminescence; measured here: NNMT inhibition; at 40 µM; stronger effect = lower value
Summary of the method: as §1

[5] = molecular target: Phenylethanolamine N-methyltransferase (Homo sapiens) (UniProt P11086); conditions: purified enzyme, MTase-Glo SAH luminescence; measured here: PNMT inhibition; at 40 µM; stronger effect = lower value
Summary of the method: as §1
% is set by controls: 0 for no effect and ±100 for the full control effect.

Compound | activity change, negative = inhibition [1] | activity change, negative = inhibition [2] | activity change, negative = inhibition [3] | activity change, negative = inhibition [4] | activity change, negative = inhibition [5]
COc1ccc(C)cc1NC(=O)Cn1c(=O)oc2cc(S(=O)(=O)N3CCCCC3)ccc21 | -2.02% | 0% | 3.41% | -5.06% | -1.93%
Cc1ccc(CNC(=O)CSc2nnc3n(CCc4ccccc4)c(=O)c4ccccc4n23)cc1 | 7.04% | 0% | 12.2% | 0.743% | 4.75%
CNC(=O)c1cc[nH]c1C1CCCN(C(=O)CCc2nc3ccccc3s2)C1 (centres undefined) | -3.53% | -0.061% | -0.026% | -3.56% | 4.03%
CC(C)n1cnnc1CC1CCN(S(=O)(=O)Cc2ccccc2)C1 (centres undefined) | -0.264% | -0.622% | 1.99% | -8.29% | 12.7%
CNC(=O)[C@@H]1CN(C(=O)c2n[nH]c3ccccc23)C[C@H]1COC | -1.97% | 0.968% | 0.727% | -3.72% | -1.33%
COCC(=O)N1CCc2cc(-c3csc(NC(=O)c4cc(OC)cc(OC)c4)n3)ccc21 | 2.49% | 1.91% | 8.61% | -1.87% | 5.59%
CC1(C)CC[C@]2(C(=O)O[C@@H]3O[C@H](CO)[C@@H](O)[C@H](O)[C@H]3O)[C@H](O)C[C@]3(C)C(=CCC4[C@@]5(C)CC[C@H](O[C@@H]6OC[C@@H](O)[C@H](O)[C@H]6O)[C@@](C)(C(=O)O)C5CC[C@]43C)[C@@H]2C1 (some centres undefined) | 1.36% | 8.99% | 12% | -0.192% | 8.21%
O=C1/C(=C/c2ccsc2)CC/C1=C\c1cccs1 | -15.3% | 7.79% | 4.7% | -6.41% | 4.47%
Cc1ccc(Cn2c(=O)c3ccccc3n3c(=O)n(Cc4cccc(C)c4)nc23)cc1 | 4.31% | 0% | 4.54% | 1.85% | 2.34%
COC(=O)[C@]1(Cc2ccc(O)c(CC=C(C)C)c2)OC(=O)C(O)=C1c1ccc(O)cc1 | -0.945% | 3.83% | 1.91% | -12.3% | 1.88%
O=C1CCc2cc(S(=O)(=O)Nc3ccc(F)c(Cl)c3)c(F)cc2N1 |  | -11.8% |  | -18.3% | -5.56%
CC(=O)O[C@@H]1CC(C)=C2[C@H]1[C@H](C)CC[C@H]2/C=C(\C)C(=O)O | 0% | -4.76% | 1.44% | -18.6% | 2.33%
Cc1ccc(NC(=O)N2CCCC(c3nnc(CN(C)C)n3C)C2)cc1C (centres undefined) | -3.38% | -6.33% | -1.52% | -4.58% | -0.49%
COc1ccc(OC)c([C@@H]2C[C@H](NC(C)=O)C[C@H](Cc3ccccc3)O2)c1 | -0.18% | 3.99% | 2.19% | -1.59% | 2.91%
C=C(C(=O)O)[C@@H]1CC[C@@]2(C)CCC[C@@](C)(O)[C@@H]2C1 | 4.49% | 4.81% | 10.6% | -7.78% | -0.138%
CCn1ccnc1CN(C)C(=O)c1ccc2oc(-c3ccc(C(F)(F)F)cc3)nc2c1 | -4.21% | -0.848% | -1.68% | -5.57% | -1.94%
Cc1ccc(CN2C(=O)CSc3c(c4ccccc4n3C)C2C(=O)NCc2ccccc2)cc1 (centres undefined) | 7.06% | 0% | 2.59% | 3.15% | 2.95%
C=C1C(=O)OC2CC(C)=C(C(C)CCCO)C(O)C12 (centres undefined) | -3.94% | -4.4% | 4.38% | -14.8% | -6.78%
O=S(=O)(NCCn1c(CCc2ccccc2)nc2ccccc21)c1ccc(C2CCCCC2)cc1 | -2.41% | -1.37% | -3.39% | -7.57% | -3.73%

Compound | activity change, negative = inhibition [1] | activity change, negative = inhibition [2] | activity change, negative = inhibition [3] | activity change, negative = inhibition [4] | activity change, negative = inhibition [5]
CS(=O)(=O)c1ccccc1N1CCN(c2nc3c(c(=O)[nH]2)CSCC3)CC1 | -12.2% | 7.66% | -20.3% | -16.6% | -2.41%
COC[C@@H](c1ccc(C(F)(F)F)cc1)N1CCN(C2(C)CCN(C(=O)c3c(C)ncnc3C)CC2)C[C@@H]1C |  | 2.75% |  | -16.8% | 0.585%
CC(C)N(C(=O)c1ccccc1-c1cc(NC2CC2)nc(N)n1)C(C)C | -8.26% | -8.93% | -6.93% | -10.4% | -6.84%
Cc1ccc(C)c(N2CCN(C(=O)c3ccc(Nc4nc5ccccc5n5nnnc45)cc3)CC2)c1 | -8.18% | 0.407% | 6.5% | 7.73% | -1.11%
O=C(O)CNC(=O)C(CS)Cc1ccccc1 (centres undefined) | -70.7% | 14.5% | 8.79% | 0.256% | 6.6%
CSCCC(NS(=O)(=O)c1ccc2c(c1)oc(=O)n2C)C(=O)N1CCN(c2ccc(C)cc2)C(C)C1 (centres undefined) | -4.32% | 0.374% | -3.74% | -7.13% | -5.43%
Cn1ncc2c(N3CCN(S(N)(=O)=O)CC3)nc(C3CCCC3)nc21 | -34.4% | -27.5% | -43.9% | -70.9% | -26.3%
Cc1onc(-c2ccccc2)c1C(=O)N[C@@H]1C(=O)N2[C@@H]1SC(C)(C)[C@@H]2C(=O)O | 1.59% and 5.72% | 6% and 7.12% | 2.91% and 4.05% | -13.1% and -9.89% | -3.67% and 0.45%
COc1cccc(CN2CCc3nn(Cc4ccccc4)c(=O)n3CC2)n1 | -1.43% | -0.078% | -0.125% | -0.678% | -2.64%
CC(C)OCCCNC(=O)C1c2c(n(C)c3ccccc23)SCC(=O)N1Cc1cccs1 (centres undefined) | 5.46% | 4.64% | -2.75% | 1.31% | 0.803%
CC(C)C(=O)N1CCn2c(nnc2C2CCN(Cc3cc(Cl)ccc3F)C2)C1 (centres undefined) | -4.94% | -7.04% | -2.57% | -9.59% | -7.61%
O=C(OC[C@H]1O[C@H](O[C@]2(CO)O[C@H](CO)[C@@H](O)[C@@H]2O)[C@H](O)[C@@H](O)[C@@H]1O)c1ccc(O)cc1 | 3.9% | 2.51% | 6.75% | -9.03% | -3.96%
Cc1ccc(NS(=O)(=O)c2ccc3[nH]c4c(c3c2)CCCC4)c(Br)c1 | 3.75% | 1.12% | 3.05% | -6.52% | 2.94%
COc1ccc(OC)c(S(=O)(=O)N2CCC(N3C[C@H](OC)[C@@H]3c3ccncc3)CC2)c1 | -5.87% | 4.19% | -5.2% | -5.66% | -4.67%
CN(C)C[C@@H]1CN(Cc2ccncc2)C[C@H]1NC(=O)Cc1ccsc1 | -5.11% | -1.08% | -0.676% | -4.96% | -11.4%
CN(C)[C@@H](CCOc1cccc2ccccc12)c1ccccc1 |  | 13.1% |  | -9.29% | -0.568%
Cc1c(Cl)cccc1N1C(=O)c2cc(C(C)(C)C)nn2CC1(C)C(=O)NCc1ccccc1 (centres undefined) | 7.93% | 0% | 7.83% | 5.63% | 2.69%
C=C1CC[C@@H]2[C@](C)(CO)[C@H](O)CC[C@@]2(C)[C@@H]1C/C=C1/C(=O)OCC1O (some centres undefined) | -3.45% | 0.125% | 5.63% | -12.3% | -49.4%
